From patent US10196447B2, “Anti-vascular endothelial growth factor receptor 2 (VEGFR2) antibody and methods of use thereof for detecting VEGFR2 and for inhibiting tumor growth, tumor angiogenesis and/or inducing cancer cell cytotoxicity” (Academia Sinica, priority 2015, dated 2019)

What was measured:
[1] = test system: PC-3 xenografts; assay: PC-3 human prostate cancer xenograft model; format: in vivo, NOD/SCID mice
Procedure: Procedures involving animals and their care were conducted according to the guidelines of the Academia Sinica Institutional Animal Care and Utilization Committee in compliance with national and international laws and policies. Non-obese diabetic-severe combined immunodeficiency (NOD/SCID) mice were purchased from the National Laboratory Animal Center (Taiwan). The human prostate cancer xenograft tumor model was developed by subcutaneously injecting 2×10^6 PC-3 cells into the dorsal flank of a six-week old male mouse. Animals were monitored daily for general health, and body weights were measured twice weekly. Tumor size was measured with slide calipers and calculated as length×width^2×0.52. […] An antibody dose of 20 mg/kg was injected twice a week for four weeks. For combination therapy, docetaxel (ScinoPharm Taiwan) was also intravenously administered at a dose of 5 mg/kg once a week for three weeks. At the end of the experiment, tumor tissue and visceral organs were removed and fixed for histological analysis.
For tumor blood vessel studies, samples were fixed in OCT. Frozen blocks were cut into 50 μm sections, and frozen tumor tissue sections were fixed with 1% paraformaldehyde, permeabilized with 0.1% TRITON™-X 100, blocked with normal horse serum (Vector), and then incubated for 1 hour at room temperature (RT) with a 1:100 dilution of the primary antibody (rat anti-mouse CD31 (PECAM-1); BD Bioscience). Subsequently, the tissue sections were incubated with Alexa 549-conjugated goat anti-rat antibody (Invitrogen) at room temperature for 1 hour. Nuclei were stained with DAPI, and sections were then mounted with fluorescent mounting solution. Immunofluorescent images were acquired using a Zeiss Axiovert 200M microscope. Positive areas of CD31 endothelial cells were quantified by pixel area counting and normalized with DAPI staining using ImageJ software under low power magnification.
The frozen tumor tissue sections were fixed with 1% paratbrmaldehyde and permeabilized with 0.1% TRITON™-X 100, before being incubated with terminal deoxynucleotidyltransferase-mediated dUTP nick end labeling reaction mixture (Roche Diagnostics) at 37° C. for 1 hour. After washing three times with PBS, the slides were incubated with FITC-anti-DIG antibody (1:2000) and DAPI (1:500). Slides were mounted with mounting solution and visualized under a fluorescent microscope. Slides were independently examined by three individuals. Areas with TUNEL-positive cells were quantified by pixel area counting, and normalized to DAPI staining using ImageJ software.

[2] = test system: HUVECs; assay: HUVEC migration (wound-healing assay); format: cell-based, human
[3] = test system: VEGFR2 on the cell surface of HUVEC; assay: Flow cytometry binding to HUVECs; format: cell-based, human; settings: FACS; antibody 0.1 μg/ml
Procedure: About 1×10^4 HUVEC were incubated with the selected anti-VEGFR2 phage clones at 4° C. for 1 hour in FACS buffer (PBS containing 1% fetal bovine serum). After the cells were washed with FACS buffer, they were first incubated with mouse anti-M13 phage Ab for 1 hr at 4° C., and then with R-phycoerythrin-conjugated goat anti-mouse IgG (Jackson Immuno Research) for 30 min at 4° C. Flow cytometry was performed with a FACSCantoII (BD), and emission fluorescence intensity was measured with FACS Diva software (BD) to quantitatively compare binding affinities.

[4] = test system: VEGFR2 signaling pathway; assay: Western blot of VEGF-A-induced phosphorylation in HUVECs; format: cell-based, human; settings: 100 nM antibody
Description: Western blots were pertbrmed using standard protocols, as previously described. The primary antibodies were purchased from Cell Signaling Technology and used at a 1,000-fold dilution for protein detection; the antibodies used are as follows: anti-VEGFR2 (clone 55B11), anti-phospho-VEGFR2 (Tyr1175; clone 19A10), anti-FAK, anti-phospho-FAK (Tyr397; cloneD20B1), anti-p42/44 MAPK, anti-phospho-p42/44 MAPK (Thr202/Tyr204; cloneD13.14.4E), anti-Akt, and anti-phospho-Akt (Ser473).

[5] = test system: HL-60 leukemia xenografts; assay: HL-60 leukemia xenograft model; format: in vivo, NSG mice
Procedure: For systemic leukemia engraftment studies, NOD/SCID/IL2Rγ−/− (NSG) mice were obtained from the Animal Center of the Institute of Cellular and Organismic Biology, Academia Sinica. Six-week old females were intravenously injected with 5×10^6 HL-60 cells through the tail vein. Animals were monitored daily for general health, and body weights were measured twice weekly. […] Mice were observed daily for signs of toxicity, and the survival times were recorded. At the end-point of treatment, the visceral organs of each mouse were removed and fixed for further histological examination.
Tumors and indicated organs were dissected from mice and fixed in 4% paraformaldehyde overnight. Fixation and processing of specimens were performed in accordance with standard procedures. The specimens were embedded in paraffin and cut into […] sections. Rehydrated paraffin-embedded tissue sections were stained with Mayer's hematoxylin solution (Wako) for 5 minutes and washed with water for 1-2 minutes. The slides were then stained with eosin solution (Wako) for 10 minutes. Tissues were visualized with Tissue Gnostics microscopes.

[6] = test system: PC-3 cells; assay: VEGF-A-induced cellular activity in PC-3 cells (Transwell invasion, colony formation, wound healing); format: cell-based, human; settings: 100 ng/ml VEGF-A; 10 μg/ml antibody
Procedure: (A) Transwell assays were carried out to examine the invasion capacity of PC-3 cells subjected to the indicated treatments. Upper panel: Giemsa staining of invasive cells. 100× magnification; n=3 in each group; scale bar, 150 μm. […] The plate was incubated for 7 days to allow colony formation. Cell colonies were visualized by crystal violet staining. The relative number of colonies was calculated in each well after elution of crystal violet solution. n=3 in each group. (C) Wound healing assay. […] Images were taken after 0, 16, and 36 hours of incubation. Scale bar, 150 μm. n=3 in each group. Error bar, SE.

[7] = test system: HUVECs; assay: Tube formation assay (capillary structure formation on […]); format: cell-based, human; settings: 40 ng/ml VEGF-A; compared with IMC-1121B
Procedure: (A) Capillary structure formation assays were performed using […]®-coated μ-Slides. HUVECs (4×10^4 cells per well) were incubated with 0.2% FBS and treated with 40 ng/ml VEGF-A, or 40 ng/ml VEGF-A together with NHIgG. […] Tubular structures were observed under phase contrast, and the relative sprout length (lower panel) and branching points (upper panel) were quantitatively measured with ImageJ software. All data were obtained from three independent experiments. […] Total protein was prepared from treated HUVECs and examined by Western blot analysis. α-tubulin was used as a loading control.
[…]® (BD Biosciences) was thawed at 4° C. overnight, and 10 μl […]® was added to each well of a pre-chilled μ-Slide Angiogenesis (Ibidi); the slide was then incubated at 37° C. for 15 minutes. Starved HUVECs (4×10^4 cells) were added to EBM-2 containing 0.2% serum with or without 40 ng/ml VEGF-A and anti-VEGFR2 antibodies. After 24 hours of incubation, endothelial cell tube formation was assessed with an OLYMPUS inverted microscope and digital camera (OLYMPUS, DP-12). Tubular lengths and branching points were quantitatively evaluated with ImageJ software. Inhibition percentage by antibodies was expressed as a percentage of that in VEGF-A-treated wells without competitor.

[8] = biological target: T1, VEGFR2-Fc (Homo sapiens, UniProt P35968); assay: Binding kinetics by surface plasmon resonance (BIACORE T100); settings: ratio of Kd values
T1 construct: purchased R&D Systems
Procedure: The affinity and kinetics of anti-VEGFR2 antibodies were measured by surface plasmon resonance in a BIACORE T100™ (GE healthcare). VEGFR2-Fc protein was coupled to an EDC- and NHS-activated CM5 sensor chip in a BIACORE flow cell, and then blocked with ethanolamine according to the manufacturer's directions. Associated and dissociated phases were monitored under continuous flow of 30 μl/min, using antibody concentrations ranging from 0.1 to 100 nM for 5 min. Regeneration was performed by injection of regenerate buffer (0.2 M NaCl, 10 mM glycine, pH 2.7). To determine binding constants, the sensorgrams were fit globally to a sample 1:1 interaction model using BIAevaluation software (GE healthcare).

[9] = biological target: murine VEGFR2 protein (Mus musculus, UniProt P35918, DEL223-227); assay: Cross-reactivity with murine VEGFR2; format: binding
[10] = test system: HUVECs; assay: HUVEC proliferation assay (MTT); format: cell-based, human
Procedure: A total of 1×10^4 HUVECs were seeded onto 96-well plates overnight. The cells were then starved in serum-free EBM-2 overnight. Subsequently, 8 μg/ml of the selected scFv, together with 40 ng/ml VEGF in low-serum EBM-2 (0.2%), was added to the wells, and then incubated for 48 hours. Cell proliferation was assessed using MTT reagent (Invitrogen), according to the manufacturer's instructions.

[11] = end of treatment, compared with IMC-1121B
[12] = 20 mg/kg i.v. twice weekly from day 3

B1: anti-VEGFR2-AF hAb: fully human antibody: R2S12-AF scFv coding sequences engineered into a human IgG1 backbone (antibody)
heavy: QVNLRESGGGLVKPGGSLRLSCAASGFTFGSYTMNWVRQAPGKGLEWVASITSGSSYIFYTDSVKGRFTISRDNSRSSLFLQMNSLRAEDTAIYYCARGSASAFDIWGQGTMVTVSS[in this place human IgG1 constant region]
light: DIQMTQSPSSLSASVGDRVTITCKASDDIINYLNWYQQKPGEAPKLLIYDASILETGVPSRFSGSGSGTDFTFTISSLQPEDIATYYCQQLDDIPITFGGGTKLEIK
modifications: left off: a dimerising Fc or GST
With B1 the tumor growth reduction ([1]; by day 38, antibody 20 mg/kg i.v. twice a week, docetaxel 5 mg/kg i.v. once a week) was 52%, the “changes in body weight during the treatment period” value ([1]; compared to the NHIgG group or docetaxel alone) was “no significant changes” and the “enhancement of cancer cell apoptosis (TUNEL assay)” value [1, 11] was “superior to IMC-1121B”. For the same molecule, the “reduction of tumor vascular density (anti-CD31 staining)” value [1, 11] was “superior to IMC-1121B”, the “docetaxel-induced toxicity (body weight as surrogate)” value ([1]; in combination with docetaxel) was “do not enhance” and the “VEGF-A-induced HUVEC migration” value [2] was “suppressed”. The “binding of antibody to cell-surface VEGFR2 on HUVECs” value [3] was “stronger binding than IMC-1121B”, the FAK phosphorylation [4] was “only marginally reduced” and the “VEGF-A-induced phosphorylation of VEGFR-2 and downstream signaling molecules (Akt, MAPK, FAK)” value ([4]; 10 min) was “efficiently diminished”. For the same molecule, the “levels of phosphorylated VEGFR2, Akt, and MAPK” value ([4]; compared with IMC-1121B) was “lower than those in IMC-1121B-treated group”, the median survival [5, 12] was 53 days and the survival time [5, 12] was 70 days. The average ovarian volume ([5]; compared with the IMC-1121B-treated group) was “significantly smaller”, the “Kaplan-Meier survival compared with the IMC-1121B group” value ([5]; log-rank test) was “significantly prolonged” and the “histopathological phenotype of ovaries (H&E)” value ([5]; n=9) was “fewer blood vessels, and retained some primary oocytes”. For the same molecule, the “lymph nodes with leukemia infiltration” value ([5]; n=9 per group) was “one of nine”, the “VEGF-A-induced cellular activities of PC-3 cells” value [6] was “suppressed” and the “suppression of VEGF-A-triggered capillary-like structures (tubule length and branch point number)” value [7] was “more effective than IMC-1121B”. For the same molecule, the “increase in binding affinity to VEGFR2 over parental clone anti-VEGFR2 hAb” value [8] was 8 fold, the “cross-reaction / binding to murine VEGFR2” value [9] was “not” and the “VEGF-A-induced HUVEC proliferation” value [10] was “suppressed”.
